Data published in patent publication US12150929B2, “Compositions and methods for the treatment of depression” (Janssen Pharmaceuticals, Inc., priority 2021, dated 2024).

Tests used:
Type in all cases: in vivo, human
[1] = system: subjects with MDD who have had an inadequate response to SSRI/SNRI treatment; experiment: ASEX sexual functioning, Example 1
Source text: As used herein, the term “decrease in sexual functioning” refers to reducing or lessening of one or more components of the human sex drive, i.e., sexual functioning. In some embodiments, the sexual functioning comprises one or more of sexual drive, sexual arousal, vaginal lubrication, erection, orgasm achievement, or orgasm satisfaction. In other embodiments, the sexual functioning comprises sexual drive. In further embodiments, the sexual functioning comprises vaginal lubrication satisfaction. In further embodiments, the sexual functioning comprises orgasm achievement. In yet other embodiments, the sexual functioning comprises orgasm satisfaction. Desirably, the patient's sexual functioning is assessed at the time of initial administration of the aticaprant. Thus, the patient's sexual functioning while taking aticaprant can be compared to the patient's sexual functioning before administration of aticaprant. Sexual functioning may be assessed by using standard scales and techniques such as the Arizona Sexual Experience Scale (ASEX). The ASEX is used to investigate whether aticaprant has a further positive or negative effect on sexual function. The ASEX is 5 item rating scale administered to patients that quantifies sexual drive, sexual arousal, vaginal lubrication or penile erection, ability to reach orgasm and satisfaction. Scores range from 5 to 30, and two different versions of the scale are available (males and females).
(§1) Standard safety assessments including physical and neurological examination, vital signs, 12-lead ECG, clinical chemistry, hematology, and urinalysis was performed. Based on observations of GI complaints in previous studies, a panel including PGI, PGII, G17 and Hp IgG was added to the clinical laboratory test panel to test for stomach mucosa status. • (vi) Suicidal ideation: C-SSRS • (vii) Exploratory: CPFQ • (viii) Central sedating effects: Karolinska Sleepiness Scale • (ix) Sexual dysfunction: ASEX E. Patient Population
Patients had their sexual functioning measured using a standard, well accepted rating scale: ASEX. See, Table 32.

[2] = system: subjects with MDD who have had an inadequate response to SSRI/SNRI treatment; experiment: SHAPS total score (anhedonia), Example 1; conditions: fITT, 10 mg
Source text: To assess a potential effect on anhedonia, an anhedonia scale may be used. For example, the Snaith-Hamilton Pleasure Scale (SHAPS) analysis is a validated scale for the measurement of anhedonia. The SHAPS is a subject completed scale in which subjects score whether or not they experience pleasure in performing a list of activities or experiences. The SHAPS is a self-reported 14-item instrument, developed for the assessment of hedonic capacity. Subjects score whether they experience pleasure in performing a list of activities or experiences. Subjects can rate the answers as 1-4 where 1 indicates “Definitely agree”, 2 indicates “Agree”, 3 indicates “Disagree” and 4 indicates “Definitely disagree”. The subject's item responses are summed to provide a total score ranging from 14 to 56. A higher total SHAPS score indicates higher levels of current anhedonia. Physician/clinical judgment can be used to assess anhedonia separately or in conjunction with an anhedonia scale.
• (i) Depression: Montgomery-Åsberg Depression Rating Scale (MADRS), Clinical Global Impression-Severity (CGI-S), Symptoms of Major Depressive Disorder Scale (SMDDS), and Self-assessment of treatment experience (SATE) • (ii) Anhedonia: Snaith-Hamilton Pleasure Scale (SHAPS) • (iii) Anxiety: Structured Interview Guide for the Hamilton Anxiety scale (SIGH-A) and HAM-A6 • (iv) Effects on Cognition: The Cognitive and Physical Functioning Questionnaire (CPFQ) • (v) Safety assessments

[3] = system: subjects with MDD who have had an inadequate response to SSRI/SNRI treatment; experiment: Treatment-emergent adverse events incl. AEs of special interest, full safety analysis set, Example 1; conditions: treatment period
Experimental: as §1
Analysis set for safety: The safety analysis is based on the full safety analysis set, defined as all enrolled subjects who received at least one dose of medication in the treatment period.
An AE can be any unfavorable and unintended sign (including an abnormal finding), symptom, or disease temporally associated with the use of a medicinal (investigational or non-investigational) product, whether or not related to that medicinal (investigational or non-investigational) product. TEAEs were AEs with onset during the treatment phase that has worsened since baseline.

[4] = TEAEs in >=5% of subjects in either group, full safety analysis set, aticaprant 10 mg, N = 85
[5] = TEAEs of special interest, full safety analysis set, aticaprant 10 mg, N = 85
[6] = of 85 subjects, sentence names diarrhea and pruritus

`Cc1cc(C)cc(C2CCCN2Cc2ccc(Oc3ccc(C(N)=O)cc3F)cc2)c1` (stereo not shown) [aticaprant, 3-fluoro-4-4-2-(3,5-dimethylphenyl)pyrrolidin-1-yl-methylphenoxybenzamide] was tested, and the “ASEX score, Baseline” value ([1]; Baseline, n = 85) was 21.26, the “ASEX score, Relative % Change” value ([1]; Endpoint vs Baseline, n = 85) was −6.91% and the “ASEX score, Absolute Change” value ([1]; Endpoint vs Baseline, n = 85, lower score indicates improvement) was −1.47. For the same compound, the “ASEX score, Endpoint” value ([1]; Endpoint, n = 85, lower score indicates improvement) was 19.79, the “sexual functioning (ASEX)” value ([1]; patients receiving aticaprant) was “notable improvements in sexual functioning” and the “mean change from treatment baseline (SD) in ASEX total score” value ([1]; to week 6, lower score indicates improvement) was −1.5 (4.02) points. For the same compound, the “SHAPS Total Score: Change from Baseline, MMRM LS Mean (SE)” value (from here on “SHAPS Total Score: Change … (SE)”) ([2]; Treatment Week 1) was −1.9 (0.54), the “SHAPS Total Score: Change … (SE)” value ([2]; Treatment Week 3) was −3.1 (0.54) and the “SHAPS Total Score: Change … (SE)” value ([2]; Treatment Week 4) was −4.1 (0.55). The “SHAPS Total Score: Change … (SE)” value ([2]; Treatment Week 5) was −4.1 (0.55), the “SHAPS Total Score: Mean Change from Baseline (SD)” value ([2]; Treatment Week 5) was −4.3 (5.70) and the “SHAPS Total Score: Change … (SE)” value ([2]; Treatment Week 6) was −4.5 (0.55). For the same compound, the “Diarrhea, %” value [3, 4] was “(8) %”, the “Gastrointestinal Disorders, %” value [3, 4] was “(14) %” and the “Headache, %” value [3, 4] was “(12) %”. For the same compound, the “Infections And Infestations, %” value [3, 4] was “(15) %”, the “Nasopharyngitis, %” value [3, 4] was “(6) %” and the “Nervous System Disorders, %” value [3, 4] was “(15) %”. The “Pruritus, %” value [3, 4] was “(6) %”, the “Skin And Subcutaneous Tissue Disorders, %” value [3, 4] was “(7) %” and the “Total no. Subjects with Adverse Events, %” value [3, 4] was “(47) %”. For the same compound, the “Abdominal Pain, %” value [3, 5] was 1-2%, the “Diarrhea, %” value [3, 5] was 8.2% and the “Dyspepsia, %” value [3, 5] was 1.2%. The “Gastrointestinal Disorders, %” value [3, 5] was 10.6%, the “Pruritus, %” value [3, 5] was 5.9% and the “Skin And Subcutaneous Tissue Disorders, %” value [3, 5] was 5.9%. The “Total no. Subjects with Adverse Events of Special Interest, %” value [3, 5] was 15.3%, the “patients who experienced acute cholecystitis” value [3] was 0 and the “Subjects with TEAE leading to discontinuation of agent, %” value ([3]; N = 85) was “(1.2) %”. The “Total subjects affected by non-serious adverse events, %” value ([3]; full safety analysis set, 10 mg (N = 85)) was “(27.1%)”, the “TEAE diarrhea, % of subjects” value ([3]; of 85 subjects) was 8.2% and the “TEAE diarrhea, subjects” value ([3]; of 85 subjects) was 7. The “TEAE headache, % of subjects” value ([3]; of 85 subjects) was 11.8%, the “TEAE headache, subjects” value ([3]; of 85 subjects) was 10 and the “subjects experienced TEAEs of special interest” value ([3]; of 85 subjects) was 13. The “subjects experienced TEAEs of special interest, %” value ([3]; of 85 subjects) was 15.3%, the “TEAE of special interest pruritus, % of subjects” value [3, 6] was 5.9% and the “TEAE of special interest pruritus, subjects” value [3, 6] was 5. The “Subjects with drug-related TEAE, %” value ([3]; relationship possible, probable, very likely, N = 85) was “(23.5) %”.
